Results published in the RNAGym collection of RNA variant scans (doi:10.1101/gad.245936.114).
This sample is rich in variants without activity.

B1: tRNA (parent)
chain: CUCUCGGUAGCCAAGUUGGUUUAAGGCGCAAGACUUUAAUUUAUCACUACGAAAUCUUGAGAUCGGGCGUUCGACUCGCCCCCGGGAGAUUUUUUCCUCGAGCAA

Variants of: B1
Assay: nonsense suppression (GFP-seq) (ratio to wild type); higher = more function; SUP4oc tRNA, yeast GFP reporter sort-seq
Summary of the method: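 Each variant's nonsense suppression (GFPSEQ) is a cell-share-weighted bin median GFP/RFP relative to the unmutated parent tRNA. Yeast with genome-integrated tRNA variants from a ~3% random-mutation library, a galactose-driven GFP ochre reporter and RFP were grown in raffinose/galactose medium with 80 mg/L adenine, then sorted into GFP/RFP bins for Illumina sequencing. Variants needed ≥100 reads and ≥30 cells.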

Row | Variant | nonsense suppression
1 | CUCUCGGUAGACAAGUUGGUUUAAGGCGCAAGACUUUAAUUUAUCACUACGAAAUCUUGAGAUCGGGCGUUCGACUCGCCCCCUGGAGAUUUUUUCCUCGAGCAA [C11A G84U] | ≤ 0.026
2 | CUCUCGGUAGACAAGUUGGUUUAAGGCGCAAGACUUUAAUUUAUCACUACGAAAUCUUGAGAUCGGGCGUCCGACUCGCCCCCGGGAGAUUUUUUCCUCGAGCAA [C11A U71C] | ≤ 0.026
3 | CUCUCGGUAGACAAGUUAGUUUAAGGCGCAAGACUUUAAUUUAUCACUACGAAAUCUUGAGAUCGGGCGUUCGACUCGCCCCCGGGAGAUUUUUUCCUCGAGCAA [C11A G18A] | ≤ 0.026
4 | CUCUCGGUAGACAAGUUGGUUUAAGGCGCAAGACUUUAAUUUAUCACUACGAAAUCUUUACAUCGGGCGUUCGACUCGCCCCCGGGAGAUUUUUUCCUCGAGCAA [C11A G59U G61C] | ≤ 0.026
5 | CUCUCGGUAGACAAGUUGCUUUAAGGCGCGAGAGUUUAAUUUAUCACUACGAAAUCUUGAGAUCGGGCGUUCGACUCGCCCCAGGGAGAUUUUUUCCUCGAGCAA [C11A G19C A30G C34G C83A] | ≤ 0.026
6 | CUCUCGGUAGACAAGUUGGUUUAAGGCGCAAGACUUUAAUUUAUCACUACGAAAUCUUGAGAUCGGGGGUUCGACUCGCCCCCGGGAGAUUUUUUCCUCGAGCAA [C11A C68G] | ≤ 0.026
7 | CUCUCGGUAGACAAGUUGGUUUAACGCGCAAGACUUUAAUUUAUCACUACGAAAUCUUGACAUCGGGCGUUCGACUCGCCCCCGGGAGAUUUUUUCCUCGAGCAA [C11A G25C G61C] | ≤ 0.026
8 | CUCUCGGUAGACAAGUUGGUUUAAGGCGCAAGACUUUAAUUUAUCACUACGAAAUCUUGAGAUCGUGGGUUCGACUCGCCCCCGGGAGAUUUUUUCCUCGAGCAA [C11A G66U C68G] | ≤ 0.026
9 | CUCUCGGUAGACAAUUUGGUUUAAGGCGCAAGACUUUAAUUUAUCACUACGAAAUAUCGAGAUCGGGCGUUCGACUCGCCCCCGGGAGAUUUUUUCCUCGAGCAA [C11A G15U C56A U58C] | ≤ 0.026
10 | CUCUCGGUAGACAAGAAGGUUUAAGGCGCAAGACUUUAAUUUAUCACUACGAAAUCUUGAGAUCGGGCGUUCGGCUCGCCCCCGGGAGAUUUUUUCCUCGAGCAA [C11A U16A U17A A74G] | ≤ 0.026
11 | CUCUCGGUAGACAAGUUGGUUUAAGGCGCAAGACUUUAAUUUAUCACUACGAAAUCUUGAGAUCGGGAGUUCGACUCGCCUCCGGGAGAUUUUUUCCUCGAGCAA [C11A C68A C81U] | ≤ 0.026
12 | CUCUCGGUAGACAAGUUGGUUUAAGGCGCAAGACUUUAAUUUAUCACUACGAAAUCGUGAGAUCGGGCGUUCGACUCGCCCCCGGGAGAUUUUUUCCUCGAGCAA [C11A U57G] | ≤ 0.026
13 | CUCUCGGUAGACAAGUUGGUUUAAGGCGCAAGACUUUAAUUUAUCACUACGAAAUCUGGAGAUCGGGCGUUCGACUCGCCCCCGGGAGAUUUUUUCCUCGAGCAA [C11A U58G] | ≤ 0.026
14 | CUCUCGGUAGACAAGUUGGUUUAAGGCGCAAGACUUUAAUUUAUCACUACGAAAUCUUGAGAUCGGGUGUUCGACUCGCCCCCGAGAGAUUUUUUCCUCGAGCAA [C11A C68U G85A] | ≤ 0.026
15 | CUCUCGGUAGACAAGCUGGAUUAAGGCGCAAGACUUUAAUUUAUCACUACGAAAUCUUGAGAUCGGGCGUUCGACUCGCCCCCGGGAGAUUUUUUCCUCGAGCAA [C11A U16C U20A] | ≤ 0.026
16 | CUCUCGGUAGACAAGUUGGUCUAAGGCGCAAGACUUUAAUUUAUCACUACGAAAUCUUAAGAUCGGGCGUUCGACUCGCCCCGGGGAGAUUUUUUCCUCGAGCAA [C11A U21C G59A C83G] | ≤ 0.026
17 | CUCUCGGUAGACAAUUUGGUUUAAGGCGCAAGACUUUAAUUUAUCACUACGAAAUCUUGAGAUCGGGCGUUCGACUCGCCCCCGGGGGAUUUUUUCCUCGAGCAA [C11A G15U A87G] | ≤ 0.026
18 | CUCUCGGUAGACAAGUUGGUUUAAGGCGCAAGACUUUAAUUUAUCACUACGAAAUCUUGAGAUCGGGCGUUCGACGCGCCCCCGGGUGAUUUUUUCCUCGAGCAA [C11A U76G A87U] | ≤ 0.026
19 | CUCUCGGUAGACAAGAUGGUUUAUGGCGCAAGACUUUAAUUUAUCACUACGAAGUCUUGAGAUCGGGCGUUCGACUCGCCCCCGGGAGAUUUUUUCCUCGAGCAA [C11A U16A A24U A54G] | ≤ 0.026
20 | CUCUCGGUAGACAAGUUGGUUUAAGGCGCAAGACUUUAAUUUAUCACUACGAAAUCUUGAGAUCGGGCGUUCGACUCGCCCCCGGGACGUUUUUUCCUCGAGCAA [C11A G88C A89G] | ≤ 0.026
21 | CUCUCGGUAGACAAGUUGGUUUAAGGCGCAAGACUUUAAUUUAUCACUACGAAAUCUUGAAAUCGGGCGUUCGACUCGCCCCCGGGAGAUUUUUUCCUCGAGCAA [C11A G61A] | 0.22
22 | CUCUCGGUAGACAAGUUGGUUUAAGGCGCAAGACUUUAAUUUAUCACUACGAAAUCUUGAGAUCAGGCGUUCGUCUCGCCCCCGGGAGAUUUUUUCCUCGAGCAA [C11A G65A A74U] | ≤ 0.026
23 | CUCUCGGUAGACAAGUUGGUUUAAGGCGCAAGACUUUAAUUUAUCACUACGAAAACUUGAGAUCGGGCGUUCGACUCGCCCCCGGGAGAUUUUUUCCUCGAGCAA [C11A U55A] | ≤ 0.026
24 | CUCUCGGUAGACAAGUUUGUUUAAGGCGCAAGACUUUAAUUUAUCACUACGAAAUCUUGAGAUCGGGCGUUCGUCUCGCCCCCGGGAGAUUUUUUCCUCGAGCAA [C11A G18U A74U] | ≤ 0.026
25 | CUCUCGGUAGACAAGUUGGUUCAAGGCGCAAGACUUUAAUUUAUCACUACGAAAUCUUGAGAUCGGGCGUUCGACUCGCCCCCGGGAGAUUUUUUCCUCGAGCAA [C11A U22C] | ≤ 0.026
26 | CUCUCGGUAGACAAGUUGGUUUAAGGCGCAAGACUUUAAUUUAUCACUACGAAAUCUUGAGAUCGGGCGUUCGACUCGCCUGCGGGAGAUUUUUUCCUCGAGCAA [C11A C81U C82G] | ≤ 0.026
27 | CUCUCGGUAGACAAGUUGGUUUAAGGCGCAAGACUUUAAUUUAUCACUACGAAAUCUUGAGAUCGGGCGUUCGACUCCCCCCCGGGAGAUUUUUUCCUCGAGCAA [C11A G78C] | ≤ 0.026
